Assay results from the RNAGym collection of RNA variant scans (doi:10.1093/nar/gkz1192).
The source gives no read counts; variants with many changes may rest on few reads.

B1: CPEB3 Ribozyme (parent)
chain: UAACAGGGGGCCACAGCAGAAGCGUUCACGUCGCAGCCCCUGUCAGAUUCUGGUGAAUCUGCGAAUUCUGCUGUAUAUCUC

Variants of: B1
Assay: self-cleavage, relative activity (ratio to wild type); higher = more cleavage; in vitro, sequencing
Outline: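 Barcoded CPEB3 ribozyme mutants, produced by rounds of error-prone PCR, self-cleaved while being transcribed with T7 RNA polymerase for 5 hours at 37°C and during a subsequent 15 min DNase I step before EDTA was added. Sequencing of template-switched cDNA on Illumina gave cleaved and total reads, and DNA sequencing assigned barcodes to variants. Each variant's relative activity is its cleaved/total read fraction divided by the unmutated ribozyme's fraction, averaged across three batches. A variant needed a minimum of 5 reads.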
A18G A20G G22C U43G U49A A56U showed a self-cleavage of 0.04. With A15U U25C A35U A45U G53U the self-cleavage was 0.11. In the case of G16A C23A U80C, the self-cleavage is reported as 0.42. A15U U43A A45C C68A U69C gave a self-cleavage of 0.06. For A15U U31C U54C, the self-cleavage was 0.48. Variant C17U U25A A45G A56U A75C has a self-cleavage of 0.05. Variant G16U A20G G52A has a self-cleavage of 0.46. With A18C A35U U48A U78C U80A the self-cleavage was 0.03. A15U C29U U54A U60C U66C showed a self-cleavage of 0.1. For A15U U41A U76C A77G, the self-cleavage was 0.18. Work on A18C U25C U60A yielded a self-cleavage of 0.07. Work on C17U A20G G73A A77G C81U yielded a self-cleavage of 1.01. Work on A15U C29U G55U U60A A65G yielded a self-cleavage of 0.1. In the case of G16C U25A G53U A75C U76C, the self-cleavage is reported as 0.46. C17A U41C A45U C50U A64U U78C U80C showed a self-cleavage of 0.07. A15U U25C U43C U78C gave a self-cleavage of 0.13. For C17U A20G U26C U58C U76C, the self-cleavage was 0.06. A18G A20U U48C gave a self-cleavage of 0.16. C17U C40A A64G U72G showed a self-cleavage of 0.1. With A18G A28G U43A A57G U72C U80A the self-cleavage was 0.29. For A15U U26C U43A A64U U78A, the self-cleavage was 0.07. C17G U41A A47G showed a self-cleavage of 0.32. For A15U C37U U51C U66C, the self-cleavage was 0.16. In the case of G16A A21G A47G U54C G63U, the self-cleavage is reported as 0.08. A15U U25C C29U U51C G55A showed a self-cleavage of 0.07. A18G A20G A35U gave a self-cleavage of 0.12. Variant A15U G19A G30A A35U A56G has a self-cleavage of 0.05. With A18G A28G U49C U54C U72C A75U U80A the self-cleavage was 0.23. For A18G A21G G24A U43C A45C A56U A64G, the self-cleavage was 0.11. Variant A18C U26C A35U G53A A65G U74C has a self-cleavage of 0.02. In the case of A15U U43C A65G, the self-cleavage is reported as 0.26. Work on A15U U48C A56G U58A U60C U74A U80A yielded a self-cleavage of 0.09. In the case of A18G A20G U25C U31C, the self-cleavage is reported as 0.32. In the case of A18G A20G C32U A45G U67C, the self-cleavage is reported as 0.06. A15U U26A A28G C29U U69A showed a self-cleavage of 0.05. With A15U G19U U51C U67G the self-cleavage was 0.07. Work on A15U G19A G24A A45C U74A yielded a self-cleavage of 0.07. Work on A15U G46C U72C yielded a self-cleavage of 0.18. Work on G16A U48C A64G yielded a self-cleavage of 0.18. Variant A18C U43A U49A A75U has a self-cleavage of 0.3. In the case of A18C U51C U67C A75G U76G, the self-cleavage is reported as 0.15. Work on A15U U60A U66A yielded a self-cleavage of 0.18. For G16U A47G A77U C79A, the self-cleavage was 0.35. A18C U41A A47G A65G showed a self-cleavage of 0.15. For A18G A20G A57G A77G U80A, the self-cleavage was 0.34. Variant C17U U60G A64G has a self-cleavage of 0.12. A18C U51A A64G gave a self-cleavage of 0.21. In the case of C17U A20U U26C U60C A64G U66C, the self-cleavage is reported as 0.14. In the case of G16U U51A C62U U67C U74C, the self-cleavage is reported as 0.14. Work on C17U A18C U26A U67A U76C U80A yielded a self-cleavage of 0.02. In the case of A18G A28G U41G U67A, the self-cleavage is reported as 0.06. For A15U G22C C27G U51A, the self-cleavage was 0.11. In the case of C17G A28U A45U A47G, the self-cleavage is reported as 0.17. Work on A18C U48G A57G yielded a self-cleavage of 0.5. Variant G16A A21G U25C C81U has a self-cleavage of 1.32. With A18G A20G A64U U67A the self-cleavage was 0.17. For C17A A47G U48C, the self-cleavage was 0.06. G16U A28C A64G gave a self-cleavage of 0.16. Work on G16A U31A A77G yielded a self-cleavage of 0.09. For A15U U54C A77U U80C, the self-cleavage was 0.95. C17A U25C U41G U54C U60A A64G U67C showed a self-cleavage of 0.05. Variant A18C U41A A45G U72G U76C has a self-cleavage of 0.06. With A18C U51A U66C the self-cleavage was 0.17. A15U C23G A28U showed a self-cleavage of 0.24. In the case of A15U U26C U41C U78A U80A, the self-cleavage is reported as 0.65. G16A A20U A28U G42U showed a self-cleavage of 0.11. For G16U C38A U66C U80A, the self-cleavage was 0.15. Work on A18C U43C A65G U78A yielded a self-cleavage of 0.26. Variant G16U U25C A57G A64U has a self-cleavage of 0.08. Variant A18C G24C G61U has a self-cleavage of 0.22. Variant C17U A28G A35C U43C A77U has a self-cleavage of 0.1. Work on A18C G24A U31C U49A A75U yielded a self-cleavage of 0.05. With G16A A35G U66C the self-cleavage was 0.25. With A18G A20G U26C U51C the self-cleavage was 0.1. A18C C23A U26C A45U U76C A77G gave a self-cleavage of 0.18. A18G A20U C29U G53A U60C U76C gave a self-cleavage of 0.05. With G16A U48C A56G the self-cleavage was 0.13. A18C G22A A57U A65G showed a self-cleavage of 0.16. With A15U U48A U60C the self-cleavage was 0.09. A18C U49A U51C A75U gave a self-cleavage of 0.22. A18C U31A U69C showed a self-cleavage of 0.12. Work on A15U U26C A28G C39A U41C U48A U51C yielded a self-cleavage of 0.05. In the case of A15U G42A G61C U66C U67A U78C, the self-cleavage is reported as 0.12. With A15U U67A U80A the self-cleavage was 0.05. A15U U26A A28C showed a self-cleavage of 0.13. A15U C39G A45C U69A gave a self-cleavage of 0. For A15U U43C U67C, the self-cleavage was 0.16. A18G A21G U51G gave a self-cleavage of 0.47. G16A U25C U51A U74C showed a self-cleavage of 0.24. A18C U43C U51A gave a self-cleavage of 0.16. For A15U C37A G63U, the self-cleavage was 0.43. For A18G A21G U26A A64U U72C, the self-cleavage was 0.28. For A15U U43A A57G U58C, the self-cleavage was 0.18. In the case of A15U G24A A56G, the self-cleavage is reported as 0.17. In the case of A15U U25C A28G C44U U78C, the self-cleavage is reported as 0.08. A15U G19A G42A A45U A64G U74A showed a self-cleavage of 0.05. Variant G16C U49C A65G has a self-cleavage of 0.15. A18G A20G U49A gave a self-cleavage of 0.1. A18G A21U A57G U72C gave a self-cleavage of 0.05. Variant A15U U74G A75G has a self-cleavage of 0.87. For A18G A28C U58A U67A, the self-cleavage was 0.09. A18G A21G U43A A56U U67C U80C showed a self-cleavage of 0.19. Variant C17A U25C A35U U54A has a self-cleavage of 0.13. In the case of A18G A20G U66C U78C, the self-cleavage is reported as 0.14. For G16U A20U A56U, the self-cleavage was 0.1. A15U U31C A35U U60C showed a self-cleavage of 0.1. In the case of A15U U51C A56G, the self-cleavage is reported as 0.46. In the case of C17U U25C U58C, the self-cleavage is reported as 0.15. Variant A18G A21G A28G C32U A64G U69A has a self-cleavage of 0.06. In the case of C17G U41C A65C, the self-cleavage is reported as 0.18. For A15U U41A U51C, the self-cleavage was 0.18. With A15U C40U A56G U60C A64G the self-cleavage was 0.15. C17G U26C U41C U72A gave a self-cleavage of 0.24. Variant C17A U43C A56U U80C has a self-cleavage of 0.05. A18G A21C G33A U49A A57G A64G showed a self-cleavage of 0.07. For C17U A28G U43C C81U, the self-cleavage was 0.15. Variant A18C A56G U78C has a self-cleavage of 0.37. Variant A18C C32U A35C A65G has a self-cleavage of 0.09. Variant A15U U26C U66C has a self-cleavage of 0.27. Variant A18C U25C C27A U41C A45G has a self-cleavage of 0.05. Work on A15U U49C U51C yielded a self-cleavage of 0.16. With G16U U25C U41C U66C the self-cleavage was 0.06. In the case of A18G A28G U54A C62A, the self-cleavage is reported as 0.2. A15U U41C A45U U78C showed a self-cleavage of 0.2. With A18G A28G U58C the self-cleavage was 0.21. Work on C17G U26C G52C yielded a self-cleavage of 0.24. Variant A15U C38U A45G A56G U78C has a self-cleavage of 0.33. In the case of A18G A20G U25C U26C U48C U78C, the self-cleavage is reported as 0.04. Work on A15U U51C A56C U72C yielded a self-cleavage of 0.33. With A18C U25A G73A the self-cleavage was 0.36. Variant C17U U41C U58C U78C has a self-cleavage of 0.21. G16A A45G U49C U69C gave a self-cleavage of 0.05. A18G A21U A57G showed a self-cleavage of 0.32. Work on A15U C23U U26C U51A yielded a self-cleavage of 0.05. A15U U51A A64U U74A gave a self-cleavage of 0.27. A15U U51A U69A gave a self-cleavage of 0.43. With C17G A18G A35G U41A C44G G53U the self-cleavage was 0.17. For A18C U51C G63A, the self-cleavage was 0.62. For A18G A28C A45G U67A, the self-cleavage was 0.14. A18C U41C U43C C68A showed a self-cleavage of 0.11. Work on G16A A18U U26C U31C yielded a self-cleavage of 0.14. A18G A28G A47C showed a self-cleavage of 0.33. G16C A28G U31C U60C showed a self-cleavage of 0.18. For C17A U49A U58A U78C, the self-cleavage was 0.12. Work on G16A A35G G46A G70C A75G yielded a self-cleavage of 0.18. Variant C17G U41C A45G U69C U74A U80C has a self-cleavage of 0.09. In the case of G16A A45G G46A U51A A56G A57U A64G, the self-cleavage is reported as 0.06. In the case of C17U A28G U43C A77U U78A, the self-cleavage is reported as 0.27. A15U U26C G36U showed a self-cleavage of 0.35. With A15U C27U A35U A64G the self-cleavage was 0.05. A15U U25C G33A U54C C62U U67C gave a self-cleavage of 0.19. With A15U U26C G70A the self-cleavage was 0.11. With A15U G53A U54C A65G the self-cleavage was 0.12. With C17U U51A U58C U76C the self-cleavage was 0.16. Variant G16A A28U U43A has a self-cleavage of 0.19. A15U U31C U43C U74A gave a self-cleavage of 0.23. In the case of A15U U25C U66C, the self-cleavage is reported as 0.06. Work on A15U U49C C50U U54A U60C U80C yielded a self-cleavage of 0.08. In the case of A18C G19A A56U, the self-cleavage is reported as 0.07. Variant A15U U26A C34G U58C has a self-cleavage of 0.07. A15U C32U U41C A57G U58C G61U U78A gave a self-cleavage of 0.06. A15U C34G U41A U67C showed a self-cleavage of 0.04. Work on G16A A20G G30A U31A A64G yielded a self-cleavage of 0.06. In the case of A15U U26A U69A, the self-cleavage is reported as 0.19. With C17G A18U U49C U72A the self-cleavage was 0.09. C17A U51C U60C showed a self-cleavage of 0.12. Variant A18G A21U G30C A35U A47G has a self-cleavage of 0.3.
